# Results as given in PubChem BioAssay AID588855 (National Center for Advancing Translational Sciences (NCATS), 2011).
# The whole screen tested about 410,000 compounds, of which about 5,000 (1.2%) were called active. This list was built around the results that the source calls inconclusive (neither active nor inactive); the mix of calls is not that of the screen. Calls come from the whole dose curve; as a rule, active = well fitted inhibition curve with a large enough effect; inconclusive = small, poorly fitted or top-dose-only effect; inactive = no such curve, though single readings can be large or run the other way. Potencies beside an inconclusive call are fits to weak or partial responses and may not hold up.
# Assay: qHTS for Inhibitors of TGF-b; note: nearly all actives have a fitted effect of over 65% in size
# Conditions: HepG2 CAGA-GFP TGF-b/SMAD3 reporter, GFP fluorescence, 18 h, TGF-beta stimulated, 500 pg/mL final; series mostly up to 46.1 µM
# In short: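 Per well, imaged GFP fluorescence of HEPG2 CAGA-GFP cells gives the signal; cells get compound, then TGF-beta (500 pg/mL final), 18 h at 37 degrees C; %Activity versus -TGF-beta and +DMSO controls.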
# Potency is the fitted concentration of half-maximal effect; tags give direction and shape of the fitted curve.
row,Compound,Potency
1,COc1ccc(OCCSc2nc(C)nc3ccccc23)cc1,inactive
2,Cn1c2ccccc2c(=O)c2cc(C#Cc3ccccn3)ccc21,inactive
3,O=C(CN1CCN(C(=O)c2ccccc2)CC1)Nc1cc(S(=O)(=O)N2CCCC2)ccc1Cl,"inconclusive: 10 µM [inhibitor, partial curve, poor fit]"
4,N#Cc1c(NCCN)nc(-c2ccccc2)c2c1CCCC2,"inconclusive: 35.5 µM [inhibitor, single point]"
5,Cc1cc(/C=c2\sc3nc4ccccc4n3c2=O)c(C)n1-c1ccc(C(=O)O)cc1,"inconclusive: 6.31 µM [inhibitor, single point]"
6,CCCCc1ccc(NC(=O)Cn2cnc3c(oc4ccccc43)c2=O)cc1,"inconclusive: 3.55 µM [inhibitor, single point]"
7,CCOc1ccc(NC(=S)NN(C)C(=S)Nc2ccc(OCC)cc2)cc1,"inconclusive: 35.5 µM [inhibitor, partial curve, poor fit]"
8,COc1ccc(C)cc1NC(=O)CSc1nc(=O)n(Cc2ccco2)c2c1CCC2,"inconclusive: 35.5 µM [inhibitor, single point]"
9,Cc1ccc(-n2cc(-c3ccccc3)c3c(N4CCC(C)CC4)ncnc32)cc1Cl,inactive
10,COC(=O)Cc1[nH]nc2c1C(c1cc(OC)c(OC)c(OC)c1)C(C#N)=C(N)O2 (stereo unspecified),"inconclusive: 3.16 µM [inhibitor, single point]"
11,CC1=CC(C)(C)Nc2ccc(OC(=O)C(C)N3C(=O)c4ccccc4C3=O)cc21 (stereo unspecified),active: 17.8 µM
12,COc1ccc(C(CNC(=O)c2oc3ccc(F)cc3c2C)N2CCCCC2)cc1 (stereo unspecified),"inconclusive: 35.5 µM [inhibitor, single point]"
13,Cc1cc(=O)oc2c(C)c(OCC(=O)N3CCN(c4cccc(Cl)c4)CC3)ccc12,inactive
14,Cc1ccccc1OC1(C)CCN(Cc2ccc3ccccc3c2)C1 (stereo unspecified),inactive
15,CC1=C(C(=O)N2CCCC(N3CCN(c4cccc(Cl)c4)CC3)C2)OCCO1 (stereo unspecified),inactive
16,Cc1nn(-c2ccccc2)c(C)c1C(=O)OCC(=O)NC12CC3CC(CC(C3)C1)C2,inactive
17,CN(C(=O)CSc1nc2ccccc2c(=O)n1-c1ccccc1Cl)C1CCS(=O)(=O)C1 (stereo unspecified),inactive
18,Cc1c(C(=O)OCc2ccccc2)[nH]c2c1C(=O)CC(c1ccco1)C2 (stereo unspecified),active: 2.51 µM
19,CN1C(=O)c2ccccc2Sc2ccc(NC(=O)Cc3ccc(Cl)cc3)cc21,"inconclusive: 35.5 µM [inhibitor, single point]"
20,C=C1[C@@H](OC(C)=O)CC[C@]2(C)[C@@H]1C[C@@H]1C[C@H](OC(C)=O)C(C)=C([C@@H](OC(C)=O)[C@@H]2OC(C)=O)C1(C)C,"inconclusive: 15.8 µM [inhibitor, partial curve, poor fit]"
21,CC(C)C[C@H]1CN([C@@H](Cc2ccc(O)cc2)CN2CCC[C@@H]2CN2C(=O)C(=O)NC[C@@H]2Cc2ccccc2)C(=O)C(=O)N1CC1CCCCC1,"inconclusive: 35.5 µM [inhibitor, single point]"

row,Compound,Potency
1,ClCc1nc2ccccc2c2ccccc12,"inconclusive: 2.82 µM [inhibitor, partial curve, poor fit]"
2,CCc1ccccc1NC(=O)c1sc2nc(C)cc(C)c2c1N,inactive
3,COc1ccc(NC(=O)CC2C(=O)N(c3ccccc3)C(=O)N2CCc2sccc2C)cc1 (stereo unspecified),inactive
4,COc1cccc(-c2cnc(C(O)c3ccc(OC)c(F)c3)[nH]2)c1 (stereo unspecified),inactive
5,O=C(CCc1nnc(C2CCCCC2)o1)N1CCN(Cc2ccccc2)CC1,"inconclusive: 20 µM [inhibitor, single point]"
6,COc1ccc(-c2ccc3[nH]c4c(c3c2)CCN2C(=O)[C@@H]([C@H](C)O)[C@@H](N(C)C(=O)Nc3cc(Cl)cc(Cl)c3)C[C@@H]42)cc1,"inconclusive: 14.1 µM [inhibitor, single point]"
7,O=C(c1ccc(S(=O)(=O)Cc2cc(F)ccc2F)c([N+](=O)[O-])c1)N1CCOCC1,"inconclusive: 25.1 µM [inhibitor, single point]"
8,O=C(CC1SC(=Nc2ccccc2)N(CCc2ccccn2)C1=O)Nc1ccc(F)cc1 (stereo unspecified),"inconclusive: 35.5 µM [inhibitor, partial curve, poor fit]"
9,Cc1ccc(S(=O)(=O)N(CC(=O)Nc2cccnc2)c2cc(Cl)ccc2C)cc1,"inconclusive: 25.1 µM [inhibitor, single point]"
10,COc1ccc(/C=C2\Sc3ccc(C(=O)N4CCN(Cc5ccccc5)CC4)cc3N(C)C2=O)cc1OC,"inconclusive: 8.91 µM [inhibitor, partial curve, poor fit]"
11,Cc1ccc(NC(=O)c2c(C)oc3ccc(O)c(CN4CCN(Cc5ccccc5)CC4)c23)cc1,"inconclusive: 14.1 µM [inhibitor, partial curve]"
12,CCn1nnc(NC(=O)c2cccc(-c3cc4ccccc4oc3=O)c2)n1,"inconclusive: 22.4 µM [inhibitor, partial curve]"
13,Cc1ccc(-n2ncc3c(NCCCN(C)C)ncnc32)cc1Cl,"inconclusive: 35.5 µM [inhibitor, single point]"
14,O=C(Cc1n[nH]c(=O)c2ccccc12)Nc1cccc(S(=O)(=O)N2CCCCCC2)c1,"inconclusive: 35.5 µM [inhibitor, single point]"
15,CCCCN(C=O)c1c(CC)nc2c(OCCC3CCCCC3)cccn12,"inconclusive: 35.5 µM [inhibitor, single point]"
16,CN(C)C(CNS(=O)(=O)c1ccc(Cl)cc1F)c1ccco1 (stereo unspecified),inactive
17,Cc1ccccc1CNC(=O)C1CCCCN1S(=O)(=O)c1ccc(F)cc1 (stereo unspecified),inactive
18,CC(C)(C)n1nc2c(c1NC(=O)COc1ccc(Cl)cc1)CSC2,"inconclusive: 12.6 µM [inhibitor, single point]"
19,COc1cc(C2c3c(-c4c(C)cc(C)cc4O)n[nH]c3C(=O)N2Cc2ccco2)cc(OC)c1OC (stereo unspecified),inactive
20,O=C(NCCOc1ccccc1)c1cc([N+](=O)[O-])ccc1N1CCOCC1,"inconclusive: 5.62 µM [inhibitor, partial curve]"
